Several values for one entry are separate records, joined by “and”; a condition that tells them apart may be missing. Identical values can stand only once. Screen size: about 230,000 compounds; about 3,600 (1.6%) were called active. Inconclusive results, whose numbers are uncertain, are shown with a selection of clear calls. Calls follow the shape of the dose curve; as a rule, active = well fitted inhibition curve with a large enough effect (not every such curve was filed as active); inconclusive = small, poorly fitted or top-dose-only effect, or another doubt; inactive = no such curve, though single readings can be large or run the other way. A potency beside an inconclusive call is a rough fit, not a confirmed value.
target: Lysine-specific demethylase 4E (Homo sapiens) (UniProt B2RXH2); experiment: qHTS Assay for Inhibitors of Human Jumonji Domain Containing 2E (JMJD2E); details: JMJD2E catalytic domain, FDH-coupled NADH fluorescence (FDH is formaldehyde dehydrogenase); series mostly up to 57.1 µM; activity change, negative = inhibition: at the top concentration
UniProt B2RXH2, sequence (B2RXH2 whole entry, looked up, the tested form may be a part): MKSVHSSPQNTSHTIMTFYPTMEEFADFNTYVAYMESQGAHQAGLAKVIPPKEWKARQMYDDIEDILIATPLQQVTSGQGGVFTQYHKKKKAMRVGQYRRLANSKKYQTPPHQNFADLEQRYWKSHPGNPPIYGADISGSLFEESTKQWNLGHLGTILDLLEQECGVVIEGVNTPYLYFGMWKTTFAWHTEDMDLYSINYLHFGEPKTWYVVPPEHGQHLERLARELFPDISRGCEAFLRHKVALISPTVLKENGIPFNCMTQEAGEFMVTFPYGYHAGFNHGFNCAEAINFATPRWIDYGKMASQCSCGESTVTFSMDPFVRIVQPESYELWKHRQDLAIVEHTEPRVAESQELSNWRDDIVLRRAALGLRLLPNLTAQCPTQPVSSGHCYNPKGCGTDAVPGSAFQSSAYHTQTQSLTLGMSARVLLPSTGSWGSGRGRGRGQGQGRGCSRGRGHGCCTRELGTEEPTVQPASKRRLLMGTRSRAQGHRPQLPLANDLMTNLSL
Also: nearly all actives have a fitted effect of over 50% in size.
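For activity change, negative = inhibition in this document: 0% = wells with enzyme and -100% = buffer wells without enzyme.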
Potency is read from the fitted curve at half-maximal effect; tags tell the direction and shape of the fitted curve.

SMILES	Potency	activity change, negative = inhibition
COc1cc(OC)cc(-c2nc(-c3cccs3)no2)c1	inconclusive: 35.5 µM [inhibitor, single point]	–
CCC1CCCCN1Cc1nc2c(c(=O)n(C)c(=O)n2C)n1CC(C)C (centres undefined)	–	inactive: -11.5%
COc1ccc(OC)c(NC(=O)c2ccc(-n3cccn3)nc2)c1	inconclusive: 35.5 µM [inhibitor, single point]	–
O=C(O)c1ccc(-c2nc(-c3ccccc3Cl)cs2)cc1	inconclusive: 20 µM [inhibitor, partial curve]	–
COCCn1c(C)cc(C2=NNC(=Nc3ccc(OC)cc3)SC2)c1C	inconclusive: 39.8 µM [inhibitor, single point]	–
O=C(CNCc1cccs1)NC12CC3CC(CC(C3)C1)C2	inconclusive: 39.8 µM [inhibitor, single point]	–
Cc1cc(C2=NNC(=NC3CC3)SC2)c(C)n1-c1c(C)n(C)n(-c2ccccc2)c1=O	–	inactive: -8.85%
COc1ccc(CN2CCCC(C(=O)N3CCCC3)C2)cc1 (centres undefined)	inconclusive: 39.8 µM [inhibitor, single point]	–
O=C(COc1ccc2ccccc2c1)Nc1nnc(-c2ccco2)s1	inconclusive: 22.4 µM [inhibitor, partial curve]	–
N#Cc1c(N)[nH]c(=S)c(C#N)c1-c1ccccc1	inconclusive: 31.6 µM [inhibitor, single point]	–
CCn1cc(C(=O)NCc2ccco2)c(=O)c2cc(F)c(N3CCN(C(=O)c4ccco4)CC3)cc21	inconclusive: 31.6 µM [inhibitor, partial curve]	–
C[C@H]1Cc2c(-c3ccccc3)nc3c(c2CO1)CN(C(=O)Nc1cccc(C#N)c1)CC3	–	inactive: 8.83% [at 11.4 µM]
O=C(CSc1n[nH]c(=O)[nH]c1=O)c1cccc([N+](=O)[O-])c1	–	inactive: 3.7%
Cc1ccccc1N1CCN(S(=O)(=O)N(C)C)CC1	–	inactive: 9.52%
CO[C@]1(NC(=O)Cc2cccs2)C(=O)N2C(C(=O)O)=C(COC(N)=O)CS[C@H]21	–	inactive: -6.34% [at 25.5 µM]
CCN(CC)CCNC(=S)Nc1ccc2nc(N3CCCC3)cc(C)c2c1	inconclusive: 25.1 µM [inhibitor, single point]	–
CCN(CC(=O)N1CCN(c2ccccc2)CC1)S(=O)(=O)c1ccc(C)cc1	inconclusive: 5.62 µM [inhibitor, single point]	–
CCc1nnc(NC(=O)CSc2nc(C)c3c(c2C#N)CCCC3)s1	inconclusive: 28.2 µM [inhibitor, partial curve]	–
COc1ccc(NC(=O)N(C2CCCCC2)C(C)c2ccco2)c(OC)c1 (centres undefined)	–	inactive: 0.534%
Cc1ccc2nc3ccc(N4CCN(C)CC4)nn3c(=O)c2c1	inconclusive: 22.4 µM [inhibitor, partial curve]	–
COc1ccc(-c2nn(-c3ccccc3)cc2/C=C/C(=O)NCCCn2ccnc2)cc1OC	inconclusive: 20 µM [inhibitor, partial curve]	–
COCc1cc(=O)n2[nH]c(-c3ccco3)cc2n1	inconclusive: 28.2 µM [inhibitor, partial curve]	–

SMILES	Potency	activity change, negative = inhibition
Cc1c(NC(=O)C(C)OC(=O)c2cc3c4ccccc4n(C)c3s2)c(=O)n(-c2ccccc2)n1C (centres undefined)	inconclusive: 28.2 µM [inhibitor, partial curve]	–
COc1cccc([C@@H]2Oc3ccc(Br)cc3C[C@H]2OC(=O)NS(=O)(=O)c2ccc(F)cc2)c1	inconclusive: 6.31 µM [inhibitor, single point]	–
CC(Sc1nnc2ccccn12)C(=O)Nc1ccc(Cl)cn1 (centres undefined)	–	inactive: 6.04%
CN(c1ccccc1)S(=O)(=O)c1ccc(C(=O)Nc2nnc(-c3ccco3)o2)cc1	inconclusive: 35.5 µM [inhibitor, single point]	–
COC(=O)CSc1nnc(-c2ccc(S(=O)(=O)N3CCCC3)cc2)n1C	inconclusive: 31.6 µM [inhibitor, partial curve]	–
COc1ccc2[nH]c(=O)c(CN(Cc3ccco3)C(c3nnnn3Cc3ccccc3)C(C)C)cc2c1 (centres undefined)	inconclusive: 35.5 µM [inhibitor, single point]	–
O=C(COC(=O)CCCNC(=O)c1ccc(Cl)cc1)NCc1ccccc1Cl	–	inactive: -3.75%
Cc1cc2cc3c(C)cc(=O)oc3c(C)c2o1	inconclusive: 5.62 µM [inhibitor, full curve, poor fit] and inconclusive: 282 nM [inhibitor, full curve, poor fit]	–
S=C(Nc1ccccc1)c1nc2ccccc2s1	–	inactive: 0.198%
Cc1nc2cc(N3CCN(C)CC3)c(NC(=O)Cc3ccccc3)cc2c(=O)n1Cc1ccccc1	inconclusive: 39.8 µM [inhibitor, single point]	–
COc1ccc(NC(=O)C(c2cc3c(cc2[N+](=O)[O-])OCO3)N2CCN(C=O)CC2)cc1 (centres undefined)	inconclusive: 22.4 µM [inhibitor, single point]	–
CCOc1cc(NC(=S)NCC(C)C)c(OCC)cc1NC(=O)c1ccco1	inconclusive: 35.5 µM [inhibitor, single point]	–
Cc1ccc2nc3c(c(C(=O)OCC(=O)NC4CCS(=O)(=O)C4)c2c1)CCCC3 (centres undefined)	inconclusive: 31.6 µM [inhibitor, partial curve]	–
COc1ccc(C(=O)CCC(=O)Nc2cccnc2)cc1	–	inactive: 1.65%
CC(C)(C)c1csc(Sc2ccc([N+](=O)[O-])cn2)n1	–	inactive: -10.8%
O=C(Oc1cccc([N+](=O)[O-])c1)N1CCCCC1	–	inactive: -6.54%
O=C(O)CSCc1cnn(-c2ccccc2)c1-n1cccc1	inconclusive: 25.1 µM [inhibitor, partial curve]	–
COc1ccc2c(c1)c1ncn(CCCN3CCOCC3)c(=O)c1n2C	inconclusive: 28.2 µM [inhibitor, partial curve]	–
COc1ccc(C(=O)Cn2ccsc2=NC(C)=O)cc1	–	inactive: -2.25%
COc1nnnc2c1sc1nc(N3CCOCC3)c3c(c12)CC(C)(C)OC3	–	inactive: -0.287%
CCOC(=O)N1CCN(Cc2c(F)cccc2F)CC1	inconclusive: 39.8 µM [inhibitor, single point]	–
CNCCOc1ccc(Cl)c(Cl)c1	inconclusive: 28.2 µM [inhibitor, single point]	–

Source: PubChem BioAssay AID2147 (National Center for Advancing Translational Sciences (NCATS), 2009)
